The record followed here is ChEMBL document CHEMBL4888484, “Replenishing the malaria drug discovery pipeline: Screening and hit evaluation of the MMV Hit Generation Library 1 (HGL1) against asexual blood stage Plasmodium falciparum ,using a nano luciferase reporter read-out” (2022).

In general, % Inhibition refers to the drop in the measured response relative to a control, in per cent.

The whole screen tested about 150,000 compounds, of which about 540 (0.36%) showed an effect of 50% or more. The list shows a part of the results.

For this assay, the system named is Plasmodium falciparum. The assay can be described thus: Primary screen in NF54 nanoGlo assay, in single point, at 2uM, 72h; a lower Z score goes with more inhibition. It is filed as functional, Erythrocyte. The following applies: timepoint 72 hour.
As to `COCCN1C(=O)c2ccccc2C(C(=O)Nc2ccc(OC)c(Cl)c2)C1c1cn(S(=O)(=O)c2ccccc2)c2ccccc12` (stereo unspecified), the “% Inhibition” value turned out to be 2% and the Z score is listed as -0.27.
Take `Cc1cc(OCCOCCNCCN)cc(C(C)C)c1`: the “% Inhibition” value was 44% and the Z score was -2.33.
The matching figures for `Cc1ccc(C(=O)NCc2cccnc2N2CCOCC2)c(O)c1`: -4% and 0.86.
The matching figures for `CC(=O)c1c(C(F)(F)C(F)(F)F)n[nH]c1C`: -4% and 0.56.
With `CCC(=O)N(CCN1CCOCC1)CC(=O)N1N=C(c2cccn2C)C[C@H]1c1ccccc1`, the “% Inhibition” value is on record as -10% and the Z score is reported as 1.72.
`COC(=O)C1CCN(Cc2cc(Cl)cc3c2OCC3)CC1`: the “% Inhibition” value was determined as 31% and the Z score was -3.5.
As for `Cc1csc([C@H](C)NS(=O)(=O)N2CCCC2)n1`, the “% Inhibition” value is -2% and the Z score was determined as 0.35.
The corresponding values for `c1cn(Cc2csc([C@@H]3CCCO3)n2)nn1` are 0% and 0.03.
In the case of `C[C@@]12CNC[C@]1(C)CN(C(=O)Cc1c(Cl)cccc1Cl)C2`, the “% Inhibition” value was -5% and the Z score is on record as 0.76.
Take `N#CCCCS(=O)(=O)Cc1csc(C2CC2)n1`: the “% Inhibition” value stood at 7% and the Z score is -0.72.
The corresponding values for `O=C(Nc1nccs1)c1cc2c(s1)CCCCCC2` are -12% and 1.06.
The matching figures for `COCc1ccc(C(=O)Nc2cccnc2-n2cc(Br)cn2)o1`: 1% and -0.11.
Consider `O=C(NCc1ccc(-c2ncon2)cc1)[C@@H]1CCC[C@H](O)C1`, for which the “% Inhibition” value was -2% and the Z score worked out at 0.44.
On to `Cc1noc(C)c1CCC(=O)N1C[C@@H]2CC[C@H]1CN(c1cnccn1)C2`, for which the “% Inhibition” value is recorded as -1% and the Z score is 0.11.
As for `CCC(C)NS(=O)(=O)c1cc(NC(=O)C(C)CC)ccc1Oc1c(C)c(C(=O)O)nn1CC` (stereo unspecified), the “% Inhibition” value is recorded as -11% and the Z score is 1.73.
The corresponding values for `CC1CCCN(CC(C)NC(=O)c2cc3n(n2)CCOC3)C1` (stereo unspecified) are -3% and 0.45.
Take `COc1ccc(C[C@H](C)CN(C)C(=O)c2ccc(C#N)cn2)cc1`: the “% Inhibition” value was -13% and the Z score amounted to 1.28.
With `C#C[C@@H](NC(=O)NCC(=O)N1CCCC1)C(C)C`, the “% Inhibition” value is -6% and the Z score is on record as 0.57.
The corresponding values for `CN(C)Cc1cccc(CNc2ncncc2C(=O)O)c1` are -14% and 1.78.
The corresponding values for `COc1ccc(-n2c(CN3CCN(C)CC3)n[nH]c2=O)c(C)c1` are 3% and -0.61.
Consider `CCN1CCN(S(=O)(=O)c2cccc(NC(=O)c3ccc(C)s3)c2)CC1`, for which the “% Inhibition” value is -3% and the Z score was 0.66.
`O=C(NCCc1ccc(C2CCCCC2)cc1)N1CCn2ncnc2C1`: the “% Inhibition” value is on record as 7% and the Z score was -1.09.
Turning to `Cc1nc(C)c(CC(=O)N2CCN(c3ccc(F)cc3)CC2)s1`, the “% Inhibition” value was 1% and the Z score is reported as -0.22.
With `COCCCn1ccc(NCc2nc(C)cs2)n1`, the “% Inhibition” value was found to be 0% and the Z score is -0.02.
As for `CCOC(=O)c1cnc2nc(C)ccc2c1Nc1ccc(F)cc1`, the “% Inhibition” value is given as -4% and the Z score is 0.64.
For `O[C@@H]1CCN(Cc2nc(C3(O)CCN(C4COC4)CC3)cs2)C1`, the “% Inhibition” value is recorded as -3% and the Z score was found to be 0.33.
The corresponding values for `N#CCCN(CC1CC1)S(=O)(=O)C[C@H]1CCCCO1` are -6% and 1.01.
For the compound `CCCc1nc(C)cc(N(C)Cc2ccnc(C)c2)n1`, the “% Inhibition” value is -3% and the Z score was determined as 0.3.
For the compound `Cc1ccc(-c2cc(C(=O)NCC[C@H](C)N3CCOCC3)n[nH]2)s1`, the “% Inhibition” value is on record as -11% and the Z score was determined as 2.07.
Regarding `CC1CC(C)(C)CC(CO)(NC(=O)Cc2cccnc2)C1` (stereo unspecified), the “% Inhibition” value was -1% and the Z score is 0.06.
For `COC[C@@H]1Nc2ncnc(Nc3cccc(Br)c3)c2NC1=O`, the “% Inhibition” value was -2% and the Z score is recorded as 0.33.
For `Cn1cncc1C(=O)NCCN1CC=C(C(C)(C)C)CC1`, the “% Inhibition” value came out at 1% and the Z score is given as -0.2.
On to `CC(C)(C)C(=O)Nc1ccncc1C(=O)N1CCC[C@H](C(=O)Nc2ccc(Cl)cn2)C1`, for which the “% Inhibition” value is reported as 5% and the Z score is listed as -0.75.
In the case of `CCS(=O)(=O)N[C@@H](C)c1cccc(C)n1`, the “% Inhibition” value came to 8% and the Z score is on record as -1.03.
`O=C1c2ccccc2-c2c(-c3ccccc3)sc(=O)n21`: the “% Inhibition” value was -5% and the Z score is listed as 0.64.
In the case of `O=C(O)[C@H](Cc1ccccc1)N(C(=O)c1ccncc1)C1CC1`, the “% Inhibition” value amounted to 37% and the Z score is on record as -5.
Regarding `COc1cc(CNn2cnnc2)cc(Cl)c1OCc1ccccc1`, the “% Inhibition” value was -17% and the Z score came out at 1.99.
The matching figures for `COC(=O)[C@H]1CCCN1C(=O)Nc1cccc(Oc2c(F)c(F)c(F)c(F)c2F)c1`: -7% and 0.72.
In the case of `C[C@@H](c1ccccc1)N(C)C(=O)[C@H]1CC[C@H](C(=O)O)CC1`, the “% Inhibition” value is given as 9% and the Z score is listed as -1.18.
With `O=C(NCC(F)(F)F)N1CCC[C@H](O)C1`, the “% Inhibition” value was -10% and the Z score stood at 1.2.
The corresponding values for `CC(C)n1cncc1CN1CCN(c2ncccn2)CC1` are 1% and -0.15.
For `CC1Cc2cc(S(=O)(=O)N3CC(O)Cc4ccccc43)ccc2O1` (stereo unspecified), the “% Inhibition” value is on record as -4% and the Z score amounted to 0.8.
Take `Cc1cc(NC(=O)CCc2cc3n(n2)CCNC3)cc2sc(N)nc12`: the “% Inhibition” value is -6% and the Z score is recorded as 0.87.
